{"source": "the supplement of paper PMC11417369", "note": "± gives the standard deviation of the averaged measurements. Some of the results follow."}
{"test_system": "PfAP2-G AP2 domain (GST-tagged)", "test": "gcPBM binding intensity (ln(normalized median fluorescence intensity)); higher = stronger DNA binding", "in_short": "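DNA-binding domains from P. falciparum, fused to GST and produced in E. coli, were put on an Agilent 4 × 180k double-stranded probe array for 1 h in 1× PBS holding 1% milk, 0.2 mg/ml BSA, 0.5% salmon testes DNA and 0.03% Triton X-100. Probes were primer-extended, 36 bp long and drawn from intergenic genomic regions, with negative controls included. After Alexa488 anti-GST antibody detection and a 488 nm scan, binding intensity was set as the highest Masliner-normalised natural-log median intensity across replicate spots of either probe orientation.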"}
{"sequence": "ACATTTACAAGGAAAGTGCATATAAGAAAAATAAAA [GTGCAC_site9587]", "gcPBM binding intensity (ln)": "10.2 ± 0.17"}
{"sequence": "TAATGAATTTAAATTTTAAAATTAATAAAAAAAATA [TGCATGCA_negctrl_site15]", "gcPBM binding intensity (ln)": "9.96 ± 0.19"}
{"sequence": "CAAAATGTTTCTCATTGTACACAAAATAAATGTCCT [XGTACX_site6798]", "gcPBM binding intensity (ln)": "11.5 ± 1.1"}
{"sequence": "TTTTATATTTTATGCACACTTATAAGAAATATGTAC [CACACA_site3040]", "gcPBM binding intensity (ln)": "11 ± 0.54"}
{"sequence": "TTATTCATTTTTATTTGTACATAATTATATGAAATT [XGTACX_site6389]", "gcPBM binding intensity (ln)": "10.9 ± 0.49"}
{"sequence": "ATTTTTTTTTATGATACACACTTGGATAATTAAAAC [CACACA_site4473]", "gcPBM binding intensity (ln)": "10.3 ± 0.36"}
{"sequence": "TATTTATTAAAACACACACACACACCCACAAAATAA [CACACA_site241]", "gcPBM binding intensity (ln)": "10.5 ± 0.51"}
{"sequence": "TTATGTATTCATTTTTTTTAAGCACCCCAAAATGAT [CACACA_negctrl_site1344]", "gcPBM binding intensity (ln)": "10.8 ± 0.66"}
{"sequence": "ATAATATATATATAAACACACAAAAAAAATTATATA [CACACA_site1534]", "gcPBM binding intensity (ln)": "10.045 ± 0.007"}
{"sequence": "CAAAATAAAAATAACACACACATTTATTTATATACA [CACACA_site6679]", "gcPBM binding intensity (ln)": "9.87 ± 0.057"}
{"sequence": "ATATATGTATATTTATGTACGTATTCCTGTATAGTC [XGTACX_site5763]", "gcPBM binding intensity (ln)": "11.5 ± 0.85"}
{"sequence": "TTATTTTCCCTTTGTGCATGCAGTTTACTTTTTGTG [TGCATGCA_site993]", "gcPBM binding intensity (ln)": "10.4 ± 0.28"}
{"sequence": "ACACATATATTAAATGTGCACTGAAATATGCATATA [GTGCAC_site9936]", "gcPBM binding intensity (ln)": "10.2 ± 0.16"}
{"sequence": "ACTTGTAAGAGACACACACACACACGGATATAAATA [CACACA_site6517]", "gcPBM binding intensity (ln)": "10.3 ± 0.3"}
{"sequence": "GGAAAAAAAAATAAATGTACGAATTAACATATCAAA [XGTACX_site5653]", "gcPBM binding intensity (ln)": "10.8 ± 0.48"}
{"sequence": "ACACAAGCACACAAATGTACATATATATATATATAT [XGTACX_site5146]", "gcPBM binding intensity (ln)": "11 ± 0.57"}
{"sequence": "ATTAAACCGTGGGAGCACACACACACACACACACAT [TGCATGCA_negctrl_site72]", "gcPBM binding intensity (ln)": "10.6 ± 0.26"}
{"sequence": "TGTTGTATCAATTTTTGTACATAACACATATGTATA [XGTACX_site3666]", "gcPBM binding intensity (ln)": "11 ± 0.47"}
{"sequence": "ATTAATTAAAAGGGAACACATAGAAATTATAAAACA [GTGCAC_negctrl_site420]", "gcPBM binding intensity (ln)": "10.21 ± 0.057"}
{"sequence": "ATATATATATTATGGGGTACAAACATCAAAAGATTT [XGTACX_site3944]", "gcPBM binding intensity (ln)": "11.4 ± 0.9"}
{"sequence": "GTAACATTTTAAATATATACATATAATGTATTTATA [GTGCAC_negctrl_site344]", "gcPBM binding intensity (ln)": "9.675 ± 0.035"}
{"sequence": "GGCCCAACTTCTTCTGACGAAAACGTAAATTGTGTG [XGTACX_negctrl_site533]", "gcPBM binding intensity (ln)": "10.14 ± 0.099"}
{"sequence": "AATCATATTAGTATGGTGCAACATATATAAATATAT", "gcPBM binding intensity (ln)": "10 ± 0.24"}
{"sequence": "TTCAAGATTTATTATACACACATATTAATATTTATA [CACACA_site6413]", "gcPBM binding intensity (ln)": "9.96 ± 0.2"}
{"sequence": "TGTGTAGGGGATATTCTACTTTAAAAATAAATATAT [CACACA_negctrl_site207]", "gcPBM binding intensity (ln)": "10.3 ± 0.4"}
{"sequence": "TATAAAAGATTGGAATGTACATAAGAAAAAAATATA [XGTACX_site5028]", "gcPBM binding intensity (ln)": "11.1 ± 0.52"}
{"sequence": "TTGTTAAAAGTATCCATTCTTTATTACTTTTGTTTA [XGTACX_negctrl_site532]", "gcPBM binding intensity (ln)": "10.4 ± 0.29"}
{"sequence": "ATTGGGTACAAATACACACACATATATATATTAATA [CACACA_site2376]", "gcPBM binding intensity (ln)": "11.3 ± 0.92"}
{"sequence": "TGTACCTTATTAATATATTTAACTCGCCTTATATAC [XGTACX_negctrl_site289]", "gcPBM binding intensity (ln)": "10.6 ± 0.32"}
{"sequence": "TCGTAAACATATTGAAAAATATAAAAAGGGGTAATA [CACACA_negctrl_site619]", "gcPBM binding intensity (ln)": "9.74 ± 0.12"}
{"sequence": "AATGGTATAATCAATACACACATAATATATATATTG [CACACA_site1658]", "gcPBM binding intensity (ln)": "10.1 ± 0.18"}
{"sequence": "TTAAGATATGTATATCGTACATGACATTAAAAATTT [XGTACX_site3352]", "gcPBM binding intensity (ln)": "10.6 ± 0.52"}
{"sequence": "AAATAAATACACATATGTACATATTTTATTTTATTT [XGTACX_site2357]", "gcPBM binding intensity (ln)": "11.3 ± 0.68"}
{"sequence": "TAAAAAAAATACAAAAGTACACAAAATTATACGTTA [XGTACX_site4656]", "gcPBM binding intensity (ln)": "11.5 ± 0.96"}
{"sequence": "AAATTGTAGCACCAAGCATGCTAAAAGGACATATGA [TGCATGCA_site717]", "gcPBM binding intensity (ln)": "10.8 ± 0.34"}
{"sequence": "CAAATATAAATATATACATGCATCTATCTATATAAA [TGCATGCA_site369]", "gcPBM binding intensity (ln)": "9.665 ± 0.078"}
{"sequence": "AATCAAAAATCAAACGCATGTAGTATAATAGATAAG [TGCATGCA_site753]", "gcPBM binding intensity (ln)": "10.11 ± 0.099"}
{"sequence": "AAGATTAAAAATTGCACACAAAAATATATTTTCTAT [CACACA_site1305]", "gcPBM binding intensity (ln)": "10.04 ± 0.028"}
{"sequence": "TATAATTTATTAAGGGGTACATATATTTCATGATAA [XGTACX_site5141]", "gcPBM binding intensity (ln)": "11.6 ± 0.81"}
{"sequence": "AAATTATATCATTTATTTTTTTATATTTTTTATATT [CACACA_negctrl_site685]", "gcPBM binding intensity (ln)": "9.53 ± 0.22"}
{"sequence": "AATTTCCTTTTTTAAAGTACACAAAAGTTCACTTTG [XGTACX_site4460]", "gcPBM binding intensity (ln)": "11.6 ± 0.98"}
{"sequence": "AAAAAAAAAAATATCACACACACATAAATATAAACC [CACACA_site2278]", "gcPBM binding intensity (ln)": "10.18 ± 0.057"}
{"sequence": "AAATTATATCAATGTTGTACATATTATTTTTTTCTC [XGTACX_site5948]", "gcPBM binding intensity (ln)": "11.1 ± 0.56"}
{"sequence": "TAGTATAAAATTATGTGTACACAAATATAACTTTTC [XGTACX_site5971]", "gcPBM binding intensity (ln)": "11.6 ± 0.78"}
{"sequence": "AAAAAAAAAAAAAGGTGTACAAGTATAATTACATAA [XGTACX_site534]", "gcPBM binding intensity (ln)": "11.5 ± 0.95"}
{"sequence": "TATTTATTGTGATACTTTTATTGTTTAATGATTAAA [CACACA_negctrl_site495]", "gcPBM binding intensity (ln)": "10.3 ± 0.14"}
{"sequence": "TGGAGGTCAGTTCACAGTACCCAGAAACTCTACGGA [XGTACX_site4927]", "gcPBM binding intensity (ln)": "11 ± 0.71"}
{"sequence": "GGAATAGTAATATATACACACAAATACAGATATATA [CACACA_site4213]", "gcPBM binding intensity (ln)": "10.2 ± 0.26"}
{"sequence": "AATTGAATTTTAAAAGAAAAAAAAAAAAAAAAATAA [XGTACX_negctrl_site195]", "gcPBM binding intensity (ln)": "9.66 ± 0.18"}
{"sequence": "TAATGTAAAATTTAGAGTACATAAAAAATTGGATGA [XGTACX_site7225]", "gcPBM binding intensity (ln)": "11.5 ± 0.86"}
{"sequence": "AAATAAAAAAAGAAACGTACATATATTGGTTTCGTC [XGTACX_site3510]", "gcPBM binding intensity (ln)": "11.2 ± 0.65"}
{"sequence": "AAACTATAATATATTACACACATATATTTTATAAGT [CACACA_site6460]", "gcPBM binding intensity (ln)": "9.93 ± 0.11"}
{"sequence": "TTTTTTCAATTTTTTTTAAATAAACCACAAAAAAAA [CACACA_negctrl_site1701]", "gcPBM binding intensity (ln)": "10.2 ± 0.41"}
{"sequence": "AACATACATAAACACACACACACACCCACAGAGACA [CACACA_site4430]", "gcPBM binding intensity (ln)": "10.2 ± 0.23"}
{"sequence": "AAAAAAATAAGTATTGAACAATTAAGGAAAAACATG [GTGCAC_negctrl_site464]", "gcPBM binding intensity (ln)": "10.285 ± 0.007"}
